# Results reported in article PMC4336329 (PLoS ONE, 2015).
# Among all 310,000 compounds or so, about 14,000 (4.5%) showed an effect of 50% or more. Effects have a minus sign here. The list shows a part of the results.
# Biological target: human ether-à-go-go-related gene (hERG) potassium channel (human, UniProt Q12809)
# Test: primary screen, population patch clamp on CHO cells stably expressing hERG
# 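Note: peak tail current of the secondary pulse compared with the same well before compound.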
# Sequence of human ether-à-go-go-related gene (hERG) potassium channel (Q12809 whole entry, looked up): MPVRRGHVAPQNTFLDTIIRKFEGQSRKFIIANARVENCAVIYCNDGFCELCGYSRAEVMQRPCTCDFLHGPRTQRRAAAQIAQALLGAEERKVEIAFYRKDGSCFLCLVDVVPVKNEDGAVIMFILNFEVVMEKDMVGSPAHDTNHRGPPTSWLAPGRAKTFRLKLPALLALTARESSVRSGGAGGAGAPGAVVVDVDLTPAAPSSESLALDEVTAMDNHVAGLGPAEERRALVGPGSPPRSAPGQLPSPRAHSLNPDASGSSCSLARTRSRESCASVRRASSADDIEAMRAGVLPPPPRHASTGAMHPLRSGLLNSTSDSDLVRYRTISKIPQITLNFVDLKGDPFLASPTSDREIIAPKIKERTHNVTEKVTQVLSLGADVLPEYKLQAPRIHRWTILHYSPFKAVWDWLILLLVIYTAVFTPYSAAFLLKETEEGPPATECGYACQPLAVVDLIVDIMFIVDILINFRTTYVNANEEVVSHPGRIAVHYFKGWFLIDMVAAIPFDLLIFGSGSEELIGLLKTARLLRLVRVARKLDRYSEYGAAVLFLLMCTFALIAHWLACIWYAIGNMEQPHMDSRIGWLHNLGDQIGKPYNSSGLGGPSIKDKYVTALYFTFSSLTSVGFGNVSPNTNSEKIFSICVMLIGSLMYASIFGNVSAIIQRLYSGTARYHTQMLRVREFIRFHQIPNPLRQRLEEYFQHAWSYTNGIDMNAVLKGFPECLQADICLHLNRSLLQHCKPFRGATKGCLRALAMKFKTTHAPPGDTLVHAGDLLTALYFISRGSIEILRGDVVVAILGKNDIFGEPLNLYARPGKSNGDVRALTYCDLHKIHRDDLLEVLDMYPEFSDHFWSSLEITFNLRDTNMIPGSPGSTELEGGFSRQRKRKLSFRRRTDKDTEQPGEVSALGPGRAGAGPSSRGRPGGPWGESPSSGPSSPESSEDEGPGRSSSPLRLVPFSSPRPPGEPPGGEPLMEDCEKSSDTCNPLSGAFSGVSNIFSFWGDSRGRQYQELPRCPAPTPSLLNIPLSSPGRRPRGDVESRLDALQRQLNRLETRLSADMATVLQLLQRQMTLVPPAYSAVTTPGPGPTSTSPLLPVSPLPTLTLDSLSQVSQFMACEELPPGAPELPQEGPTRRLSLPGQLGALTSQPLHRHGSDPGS
row,Structure (SMILES),"hERG current change (%, negative = inhibition) at 10uM"
1,Cc1nn(-c2ccc(F)cc2)c(C)c1NS(=O)(=O)c1ccc(Cl)cc1,-12.1%
2,COc1cccc(-n2c(CN3CCN(c4cccc(C)c4)C(C)C3)nc3ccc([N+](=O)[O-])cc3c2=O)c1 (centres unmarked),-4.37%
3,NS(=O)(=O)c1ccc(CCNC(=O)CSc2ncnc3ccccc23)cc1,19%
4,CCOC(=O)c1sc(NC(=O)CSc2nccc(C)n2)nc1C,-5.59%
5,CCCCN(C(=O)C1CCC1)c1c(N)n(Cc2ccccc2)c(=O)[nH]c1=O,-0.98%
6,CCOC(=O)NC(NCc1cccc(C(F)(F)F)c1)(C(F)(F)F)C(F)(F)F,-1.81%
7,Cc1cc(Sc2ncnc(N)c2[N+](=O)[O-])ncn1,12.7%
8,Cc1ccc(CSCC(=O)NN=C2CCN(C)CC2)cc1,2.08%
9,CCOc1ccccc1Nc1nnc(SCc2nnc(-c3cc(OC)c(OC)c(OC)c3)o2)s1,-10.3%
10,COC(=O)CN(C(=S)Nc1ccc(F)cc1)C1CC(=O)N(c2ccccc2)C1=O (centres unmarked),-2.41%
11,Cc1cccc(N2C(=O)CC(SC(=Nc3ccccc3)Nc3ccccc3)C2=O)c1 (centres unmarked),-2.5%
12,Cc1onc(-c2c(F)cccc2Cl)c1C(=O)NCc1ccccc1,-7.14%
13,O=C(c1ccc(=O)[nH]n1)N1CCc2ccccc2C1,5.67%
14,Clc1nssc1=Nc1nncs1,21.7%
15,CCCNC(=O)C(Cc1ccccc1)NS(=O)(=O)c1ccc2c(c1)CCC(=O)N2 (centres unmarked),6.92%
16,COc1ccc(CCNC(=O)/C=C/c2ccc(OC)c(S(=O)(=O)N3CCOCC3)c2)cc1,-20.3%
17,C/C(=N\OC(=O)c1ccc(F)cc1)c1sc(-c2ccc(Cl)cc2)nc1C,16.3%
18,Cc1ccc(S(=O)(=O)N2CCN(CC(O)c3ccccc3)CC2)cc1 (centres unmarked),9.49%
19,Cc1occc1-c1nnc(SCC(=O)N(C)CCC#N)n1N,4.44%
20,CCNC(=S)Nc1ccc(Cc2ccncc2)cc1,-4.01%
21,Cc1cc(C)cc(OCC(=O)Nc2cccc(C(=O)O)c2)c1,18.5%
22,COc1ccccc1CNC(=O)CCC(=O)N1CCOc2ccc(C)cc21,-17.9%

row,Structure (SMILES),"hERG current change (%, negative = inhibition) at 10uM"
1,O=C(CCN1C(=O)C2C3C=CC(C3)C2C1=O)N1CCN(c2ccc(F)cc2)CC1 (centres unmarked),-25.8%
2,CCOC(=O)CSc1nnc(-c2ccc(NS(=O)(=O)c3ccc(C)cc3)cc2)o1,-14.9%
3,COc1ccc(C2CC(c3cccs3)=NN2C(=O)COC(=O)c2cncc(Br)c2)cc1OC (centres unmarked),-4.65%
4,CCC(C)[C@H](NC(=O)OC(C)(C)C)C(=O)NCC1CCC(C(=O)N[C@@H](Cc2ccccc2)C(=O)O)CC1 (some centres unmarked),19.8%
5,COc1ccc(NC(=O)c2cc(S(=O)(=O)NCC3COc4ccccc4O3)ccc2F)cc1 (centres unmarked),-19.1%
6,CSc1ccc(C(=O)C2CCCN(C(=O)c3csc(C(C)=O)c3)C2)cc1 (centres unmarked),-10.4%
7,O=C(Cn1ncn2cccc2c1=O)N1CCCCC1,13.4%
8,O=C(NCc1cccc2ccccc12)Nc1ccccc1,14.4%
9,C=CCc1cc(C)ccc1OCCOCCN1CCN(C)CC1.O=C(O)C(=O)O,-10.7%
10,O=C(c1cc([N+](=O)[O-])cc([N+](=O)[O-])c1)N1CCCc2ccccc21,-16.3%
11,CCOC(=O)C1CCCN(C(=O)Nc2c(-c3ccccc3)noc2C)C1 (centres unmarked),6.03%
12,Cc1ccc2c(c1)c(C)c(C)n2CC(O)Cn1nc(C)cc1C (centres unmarked),1.9%
13,Cc1ccc(C(c2c(C)[nH][nH]c2=O)c2c(C)[nH][nH]c2=O)cc1[N+](=O)[O-],1.4%
14,O=C(CSc1ncnc2sc3c(c12)CCC3)Nc1ccccc1C(=O)O,-5.3%
15,CC(=O)NC(Cc1ccc(F)c(F)c1)C(=O)NC1CCN(C(=O)c2ccc(C)cc2)CC1 (centres unmarked),-12.9%
16,COc1cc(-c2nnc(COC(=O)C3c4ccccc4Oc4ccccc43)o2)cc(OC)c1OC,-6.39%
17,CCOC(=O)c1oc2ccccc2c1CN1CCCCC1.Cl,-55%
18,Cc1c(Cl)cccc1NC(=O)CC1Sc2ccccc2NC1=O (centres unmarked),-3.01%
19,CC(C)(C)Cc1nnc(NS(=O)(=O)c2ccc(F)cc2)s1,0.129%
20,OCCC1CN(Cc2ccc3c(c2)CCO3)CCN1Cc1ccc(F)cc1 (centres unmarked),-72.9%
21,CCCNC(=O)CCc1c(C)nc2c(c(C)nn2-c2ccccc2)c1C,0.304%
22,Cc1ccc(C2CCN(C(=S)Nc3cccc(Cl)c3)C2)cc1 (centres unmarked),14.4%

row,Structure (SMILES),"hERG current change (%, negative = inhibition) at 10uM"
1,Cc1ccc(NC(=O)COc2cccc(-n3cnnn3)c2)cc1[N+](=O)[O-],-0.307%
2,CC1(C)OC(=O)C(=C2CCCN2)C(=O)O1,14.5%
3,Cc1ccnc(NS(=O)(=O)c2ccc(NS(=O)(=O)c3ccc(Br)cc3)cc2)n1,3.66%
4,CC(=O)Nc1cc(C(=O)c2ccccc2)ccc1N1CCOCC1,-7.94%
5,CC1(C)CC(=O)C=C(N=CC2=C(O)CC(C)(C)CC2=O)C1,3.3%
6,O=C(CSc1nc(-c2ccccc2)c(-c2ccccc2)[nH]1)Nc1nccs1,-6.71%
7,Cc1cc(=O)n(C)c2ccccc12,17.9%
8,CC(C)Oc1ccc(CNC(=S)Nc2ccccc2)cc1Cl,8.95%
9,O=C(CN1C(=O)COc2ccccc21)NCCN1CCOCC1,11.3%
10,COc1ccc(CN(CCC(c2ccco2)C(C)C)C(C)=O)cc1OC (centres unmarked),0.825%
11,O=[N+]([O-])c1cc(S(=O)(=O)Nc2ccccc2)ccc1-n1nnc2ccccc21,-4.1%
12,CCCCCCCCCCCCS[C@H]1CS(=O)(=O)C[C@@H]1O,0.749%
13,C#CCCOC(=O)N1C2=NC(C(=O)OC)=C(C(=O)OC)[C@@H]3N(C)c4ccccc4[C@]23C[C@H]1CO,-1.23%
14,O=C(CSc1nc(-c2ccco2)cc(C(F)(F)F)n1)NN1CCOCC1,12.8%
15,Nc1cc(C(=O)OCC(=O)Nc2ccc(N3CCOCC3)cc2)ccc1Cl,-4.47%
16,CC(C)(C)c1ccccc1OCCOCCN1CCCCCC1.O=C(O)C(=O)O,-39.1%
17,C=CCOC(=O)C1=C[C@@H](c2ccccc2)C[C@@H](OCc2ccc(CO)cc2)O1,-11.9%
18,COc1ccc(/C=N/NC(=O)CCn2nc(C)cc2C)cc1,-5.38%
19,Cc1ccc(CNC(=O)COC(=O)c2cncc(Br)c2)cc1,10%
20,COc1cccc(NC(=O)CNC(=O)c2ccc(C)o2)c1,6.41%
21,CC(C)(C)c1cc(C(=O)NNC(=O)Nc2ccccc2)n(Cc2ccccc2)n1,11.1%
22,O=C(CCN1C(=O)/C(=C\C=C\c2ccccc2)SC1=S)Nc1cccc(C(=O)O)c1,13.6%

row,Structure (SMILES),"hERG current change (%, negative = inhibition) at 10uM"
1,O=C(Nc1ccc([N+](=O)[O-])cc1)c1cc(-c2ccccn2)nc2c(Cl)cccc12,33%
2,O=C(COc1ccc2c(c1)oc(=O)c1ccccc12)N[C@@H](Cc1ccccc1)C(=O)O,-1.31%
3,O=C1CCCCC1Sc1ccc(Cl)cc1[N+](=O)[O-] (centres unmarked),25.9%
4,COc1ccc(/C(C)=N/OC/C(O)=C(\C#N)c2nc3ccccc3[nH]2)cc1,13%
5,COCCCNc1oc(-c2cccs2)nc1S(=O)(=O)c1ccc(C)cc1,-15.2%
6,O=C(O)CSc1nc2c(c(=O)[nH]1)CCCC2,21.7%
7,CCn1c(C)c(C)c2cc(C(=O)N3CCc4ccccc4C3)ccc21,-8.3%
8,O=C(C1=C[C@H](c2ccc3c(c2)OCO3)C[C@H](OCCCCO)O1)N1CCN(Cc2ccccc2)CC1,-62.8%
9,Cc1ccccc1NC(=O)CN(C)S(=O)(=O)c1cccs1,2.52%
10,O=C(Nc1cccc(F)c1)/C(=C\c1cccnc1)NC(=O)c1ccco1,-22.4%
11,CC(C)c1cccc(C(C)C)c1NC(=O)CCl,5.87%
12,O=c1[nH]c(CSc2ncn[nH]2)nc2ccccc12,19.7%
13,Cc1cc(C)c2nc(Cl)c(C3NC(=O)c4ccccc4N3)cc2c1 (centres unmarked),10%
14,O=C(CSc1nnc(CN2CCOCC2)n1-c1ccc(Cl)cc1)Nc1ccc2c(c1)OCO2,-9.87%
15,Cc1ccc(C)c(CN2CCC(CNC(=O)Nc3cccc(Cl)c3C)CC2)c1,-43.1%
16,O=C(Nc1nn[nH]n1)c1cccc(Oc2ccccc2)c1,15.3%
17,COC(=O)c1cccc(C(=O)N2CCCC(Nc3ccc(C)c(C)c3)C2)c1 (centres unmarked),-5.33%
18,COc1ccc(NC(=O)CSc2nc(-c3ccc(C)cc3)cc(C(F)(F)F)c2C#N)cc1,27.7%
19,CCCCN(C(=O)C(C)N1C(=O)c2ccccc2C1=O)c1c(N)n(CCCC)c(=O)[nH]c1=O (centres unmarked),12.9%
20,O=c1c2c(nc3nc(SCc4ccccc4)[nH]n13)CCC2,-17.4%
